Results: PubChem BioAssay (NCI)
Several values for one entry are separate records, joined by “and”; a condition that tells them apart may be missing. Identical values can stand only once.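 Interpolation was linear, between the two tested concentrations surrounding the appropriate level; five concentrations were tested over 48 hours in 96-well plates. GI50: concentration for 50% inhibition of growth. Definition used: TGI = concentration required for complete inhibition of growth.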 Numbered stars: 1 amine (or outer) side, 2 acyl side, 3 side chain; on linkers, the order of the positions; unused ones are H or OH. Bridge positions count the residues as written; N and C are the ends. Square brackets hold non-standard residues; d marks the D form. Peptide text beside a SMILES is read from it. * marks the point of attachment. X35 = CC[C@H](C)[C@@H](N[*:1])[C@@H](O)CC(=O)[*:2]; NMeY = CN[C@@H](Cc1ccc(O)cc1)C(=O)O; dNMeL = CN[C@H](CC(C)C)C(=O)O; Hiv = CC(C)[C@H](O)C(=O)O; Pyruvoyl = CC(=O)C(=O)*

Tested on: NCI-H322M lung
Assay: NCI-60 cell line screen, 48 h

| SMILES | TGI | GI50 [µM] |
| --- | --- | --- |
| CC[C@H](C)[C@H]1NC(=O)[C@@H](NC(=O)[C@@H](CC(C)C)N(C)C(=O)[C@@H]2CCCN2C(=O)C(C)=O)[C@@H](C)OC(=O)[C@H](Cc2ccc(OC)cc2)N(C)C(=O)[C@@H]2CCCN2C(=O)[C@H](CC(C)C)NC(=O)[C@H](C(C)C)OC(=O)C[C@@H]1O (Pyruvoyl-P[dNMeL]T[X35][Hiv]LP[NMeY](Me); ester 3-C) | 0.0448 µM | – |
| CN(C)c1ccc2nc3ccc(=[N+](C)C)cc-3oc2c1 | 12 µM | 2.3 |
| CC1=CC(=O)c2c(O)cccc2C1=O | 30 µM | – |
| Cc1ccc2[nH]c(C(=O)NN3C(=O)CSC34CCCCC4C)c(-c3ccccc3)c2c1 (stereo not drawn) | 35.4 µM | 17.1 |
| CN1CCc2c1nc(-c1ccccc1)c1c2N(C)CC1 | > 100 µM | – |
| c1ccc2[nH]c(-c3ccc(N4CCN(c5ccc(-c6nc7ccccc7[nH]6)cc5)CC4)cc3)nc2c1 | > 100 µM | > 100 |
| CCOC(=O)c1cc(Sc2ccc(N)c(C(=O)OCC)c2)ccc1N | > 100 µM | – |
| CC(=O)OC1c2ccccc2CC2(OC(C)=O)c3ccccc3C12 (stereo not drawn) | > 100 µM | – |
| O=C1CSC2(CC(/C=C/c3ccccc3O)=NN2c2cccc(S(=O)(=O)O)c2)N1c1nc2ccccc2s1 (stereo not drawn) | > 100 µM | – |
| CN(C(=O)C12C3C4C1C1C2C3C41I)C(C)(C)C (stereo not drawn) | > 100 µM | – |
| COc1ccc(/C=C(\Cl)c2ccc(OC)c(OC)c2)cc1OC | > 100 µM | – |
| CCCCc1ccc(Nc2nc(Cl)c3c(ncn3COCCOC(C)=O)n2)cc1 | 29.3 µM | – |
| O=C(CC1Sc2ccccc2NC1=O)Nc1cc(Cl)ccc1Cl (stereo not drawn) | > 100 µM | – |
| C/C(=N\N)C(CN(C)C)C(c1ccccc1)c1c(O)c2ccccc2oc1=O (stereo not drawn) | > 100 µM | – |
| CCCCCCn1c(SCC)c2ccccc2c1-c1nc(F)nc(F)n1 | > 100 µM | – |
| Cc1ccc(NCC2CC/C(=C\c3ccc(Cl)cc3)C2=O)cc1 (stereo not drawn) | > 100 µM | – |
| NC(=S)NNC(=O)/C(=C/c1ccc(/C=C(\NC(=O)c2ccccc2)C(=O)NNC(N)=S)cc1)NC(=O)c1ccccc1 | > 100 µM | – |
| COc1ccccc1C1CC(=O)CC(c2ccccc2OC)C12C(=O)NC(=S)NC2=O (stereo not drawn) | > 100 µM | – |
| Fc1ccc2[nH]cc(Cc3c[nH]c4ccc(F)cc34)c2c1 | 44.4 µM | 17.8 |
| CSC1=N[C@H](c2ccccc2)CS1 | > 100 µM | – |
| c1ccc(Nc2nnc(CSc3nc(-c4ccccc4)c(-c4ccccc4)[nH]3)s2)cc1 | 94.8 µM | – |
| CC(=O)[O][Pb]([O]C(C)=O)([c]1ccccc1)[c]1ccccc1 | > 100 µM | 18.6 |
| CCOC(=O)C(c1c[nH]c2ccccc12)(c1c[nH]c2ccccc12)c1c[nH]c2ccccc12 | 90.6 µM | – |
| COc1ccc(/C=C2\OC(=O)C(Cl)=C2c2ccc(OC)cc2)cc1 | > 100 µM | – |
| Fc1ccc(-c2nc3n(c2-c2ccncc2)CCS3)cc1 | > 25 µM | > 25 |

| SMILES | TGI | GI50 [µM] |
| --- | --- | --- |
| C=C(C)[C@@H]1CC=C(CO)CC1 | > 10 µM and 956 µM | > 10 |
| O=C(O)C1C(C(=O)O)C2C(=O)C=CC1N2Cc1ccccc1 (stereo not drawn) | 23.8 µM | – |
| O=c1c2cc(S(=O)(=O)Nc3ccccc3Cl)ccc2ncn1NS(=O)(=O)c1ccc(Br)cc1 | > 37.5 µM | – |
| Cc1nc2sc(CCl)nn2c(=O)c1Cl | 30.5 µM | – |
| CS(=O)(=O)CC1=Nc2nnc(CCCCCCCc3nnc4n3C(=O)C(CS(C)(=O)=O)=N4)n2C1=O | > 100 µM | – |
| CC12CCC=CC1CCC1C2CCC2(C)C(c3ccc(=O)oc3)CCC12O (stereo not drawn) | 0.722 µM | 0.0988 |
| COc1ccc(/C=C2/C(C)=NN(c3cccc(Cl)c3)/C2=N/c2nc3ccccc3s2)cc1 | 60.7 µM | – |
| O=S(=O)(c1ccc(NC(=S)NCc2cccnc2)cc1)N1CCCCC1 | > 100 µM | 50.1 |
| Cc1c2ccncc2cc2c1sc1ccncc12 | 14.6 µM | – |
| Nc1nc(/C=C\c2ccc([N+](=O)[O-])o2)nc(N2CCN(c3ccccc3)CC2)n1 | 38.4 µM | 8.48 |
| CC[C@](C)(O)C(=O)O[C@H]1C(=O)O[C@@H]2C[C@H]3C(C)=CC(=O)[C@@H](O)[C@]3(C)[C@H]3[C@@]4(O)OC[C@]32[C@@H]1[C@@H](C)[C@H]4O | 18.8 µM and 2.88 µM | 0.371 |
| NCCCCNCCCN1CC1 | 1.67 µM | – |
| N=C(N)c1nn(C2OC(CO)C(O)C2O)c2nc[nH]c(=O)c12 (stereo not drawn) | 3.28 µM | 0.354 |
| O=C(O)C1CC2C3CCC2C1C3=O (stereo not drawn) | > 100 µM | – |
| CCCC(O)[C@@H](O)c1ccc2c(c1O)C(=O)c1c(OC)cccc1C2=O (stereo partly drawn) | > 100 µM | – |
| COc1ccc(Br)c2c1CC(C(=O)O)CC2 (stereo not drawn) | > 100 µM | – |
| NCC1(N2CCOCC2)C2CCCC21CO (stereo not drawn) | > 100 µM | – |
| NC(=O)C(Nc1c(Cl)cccc1Cl)c1cc2cc(Br)ccc2nc1Cl (stereo not drawn) | > 100 µM | – |
| CC12CCC(=O)C=C1CCC1C2CCC2(C)C(C(=O)Cn3cnc4c(=S)nc[nH]c43)CCC12 (stereo not drawn) | > 100 µM | – |
| O=S1(=O)c2cnccc2NC(=NCc2cccc3ccccc23)N1c1ccccc1 | > 100 µM | – |
| CSc1nc2ccccc2c(=O)n1/N=C1\C(=O)N(CN2CCCCC2)c2ccc(Cl)cc21 | > 100 µM | – |
| O=C(CCN1CCCC1)Nc1ccc2c(NCc3ccc(F)cc3)c3ccccc3nc2c1 | 1.73 µM | 0.405 |
| O=C1CC(=O)NC(=NN2C(=O)CSC2c2ccc(Cl)c(Cl)c2)N1 (stereo not drawn) | > 100 µM | – |
| COc1ccc2c(c1)CCC1C2CCC2(C)C1CCC2(O)CNC(=O)CCCCC1CCSS1 (stereo not drawn) | > 100 µM | 74.4 |
| Nc1ncnc2c1ccn2C1OC2COP(=O)(O)OC2C1O (stereo not drawn) | 24.4 µM | – |

| SMILES | TGI | GI50 [µM] |
| --- | --- | --- |
| CCN1C(=O)N(CC)C2C1NN=c1s/c(=C3\C(=O)N(C(C)C)c4ccccc43)c(=O)n12 (stereo not drawn) | > 100 µM | 0.795 |
| CCOC(=O)CCC(NC(=O)Cc1ccc(Nc2nc3ccccc3nc2-c2ccccc2)cc1)C(=O)OCC (stereo not drawn) | > 100 µM | – |
| COc1cccc(C2=C(c3cn(C)c4ccccc34)C(=O)NC2=O)c1 | > 25 µM | > 25 |
| CCc1ccc(NCc2cc(OC)c(OC)c(OC)c2)cc1 | > 100 µM | – |
| Cc1ccc(C(=O)Nc2ccc(S(=O)(=O)O)c3cc(S(=O)(=O)O)cc(S(=O)(=O)O)c23)cc1NC(=O)c1cccc(N)c1 | > 100 µM | – |
| O=C(NCCCCCCNC(=O)c1cccc2ccccc12)c1cccc2ccccc12 | > 100 µM | – |
| CCN(CC)c1ccc(/C=C/c2cc(C)c3ccccc3n2)cc1 | 63.1 µM | 10.4 |
| Nc1ncnc2sc(=S)c3c(c12)CCC3 | > 100 µM | 40.6 |
| CN(C)c1ccc(-c2c(C#N)c(N)[nH]c(=S)c2C#N)cc1 | > 100 µM | – |
| CCOC(=O)C=C1CCN(C(=O)c2ccccc2)CC1 | > 100 µM | – |
| CSc1nnc(CCSc2ccnc3c(C(F)(F)F)cccc23)o1 | > 100 µM | > 100 |
| C=C1C(=O)O[C@H]2C[C@@H](C)[C@@H]3CC(=O)OC[C@@]3(C)CC12 (stereo partly drawn) | 75.7 µM | – |
| COc1cc2c(cc1OC)-c1[nH]c3ccc(C#N)cc3c1CC(=O)N2 | > 100 µM | – |
| CCc1c(C)[nH]c(/C=C2\N=C(c3ccc[nH]3)C=C2OC)c1C | 17.6 µM | 2.21 |
| CCCN1C(=O)/C(=c2\sc3n(c2=O)C2C(NN=3)N(CC)C(=O)N2CC)c2ccccc21 (stereo not drawn) | > 59.1 µM | 2.4 |
| NCCCNCCCNCCCN | > 100 µM | – |
| COc1ccc(C(=O)/C=C/c2ccc(OCC(=N)N)cc2)cc1OC | > 10 µM | – |
| O=C(O)[C@@H]1C2CC([C@@H]1C(=O)O)[C@H](N1C(=O)CCC1=O)[C@@H]2Br (stereo partly drawn) | > 100 µM | – |
| CC(C)=CCOc1cc(NC(=S)c2ccoc2C)ccc1Cl | > 100 µM | – |
| Clc1cccc(Cl)c1C=NC12CC3CC(CC(C3)C1)C2 | > 10 µM | – |
| CCCN(Cc1ccc(F)cc1)c1ccc(CO)c(Cl)c1 | 20.5 µM | 7.17 |
| CC1CC2C(=O)NC(=O)C2c2[nH]c3ccccc3c21 (stereo not drawn) | > 100 µM | – |
| Nc1cc(=O)[nH]c(SC2=NC(N)CC(O)C2)n1 (stereo not drawn) | > 100 µM | – |
| CC12CCC(=O)C(O1)C1C(=O)c3cc4ccccc4cc3C(=O)C12 (stereo not drawn) | 92.6 µM | 28.1 |
| O=C(O)c1c[nH]c2c(Sc3ccccc3)nccc2c1=O | > 100 µM | – |

| SMILES | TGI | GI50 [µM] |
| --- | --- | --- |
| CC(C)c1ccccc1SC1CC(=O)CC(Sc2ccccc2C(C)C)C12O[C@H](c1ccccc1)[C@@H](c1ccccc1)O2 (stereo partly drawn) | > 100 µM | – |
| COc1cc2c(/C=C3/C(=O)Nc4ccc(Cl)cc43)c(Cl)n(Cc3ccccc3)c2cc1C | 4.93 µM | – |
| CCc1ccc(NC(=O)Nc2c[nH]c3ccccc23)cc1 | > 80.6 µM | 35.1 |
| C=C1C(=O)O[C@@H]2C1CC(=O)C(C)CC/C=C(\C)CCC[C@H](C)[C@H]2OC(C)=O (stereo partly drawn) | 31.2 µM | 16.3 |
| CC1=NC(=O)C(C)(c2ccccc2)N1CCc1ccccc1 (stereo not drawn) | > 100 µM | – |
| COc1cc(Cn2cc3c(c2)-c2oncc2CC3)cc(OC)c1OC | – | 0.0324 |
| COC(=O)c1[nH]c(=S)[nH]c(=O)c1-c1ccc(Cl)cc1 | > 50 µM | – |
| C=C1C(=O)OC2CC3(C)C=CC(=O)C(=C)C3CC12 (stereo not drawn) | 24.1 µM | – |
| CCCCCC(=O)Nc1n[nH]nc1C(N)=O | > 100 µM | – |
| Cn1nc(Cc2ccc(Cl)cc2)n(N)c1=O | > 100 µM | – |
| COC(=O)CCC(=O)N1Cc2cc(C)ccc2N(C(=O)CCC(=O)OC)Cc2cc(C)ccc21 | > 100 µM | – |
| CC1=C2CCCC2C/C(=N/Nc2ccc([N+](=O)[O-])cc2[N+](=O)[O-])CC1 (stereo not drawn) | > 100 µM | – |
| CCOC(=O)/C(C)=C\[C@@]1(C)O[C@@H](C)[C@@](C)(OC(C)=O)[C@@H]1OC(C)=O | > 100 µM | – |
| Cc1ccc2c(c1)C1(C)OC(CC(N)C1O)O2 (stereo not drawn) | > 100 µM | – |
| CC1=C(C(=O)Nc2cccc3c2C(=O)NC3=O)CC(C(=O)Nc2cccc3c2C(=O)NC3=O)=C(C)N1 | > 100 µM | – |
| CC1(C)C(=O)N(O)C(C)(C)N1O | > 10 µM | – |
| Fc1c(F)c(C(F)(F)F)c(F)c(F)c1N/N=C\c1c[nH]c2ccccc12 | 18.9 µM | – |
| C[C@]12CC[C@H]3[C@@H](CCC4=CC(=O)CC[C@@H]43)[C@@H]1CC[C@@H]2OC(=O)N(CCCl)N=O | 35 µM | 5.59 |
| COc1ccc(C2c3cc4c(cc3C(O)C3CCC(=O)N23)OCO4)cc1 (stereo not drawn) | > 100 µM | – |
| C=C(c1ccccc1)C1ON(C)CCc2cc(OC)c(OC)cc21 (stereo not drawn) | > 100 µM | – |
| CN(C)CCCNC(=O)c1cc(NC(=O)CCNS(=O)(=O)c2ccc3c(c2)C(=O)c2ccccc2C3=O)cn1C | > 100 µM | > 100 |
| CCOC(C[C@H](O)[C@H]1COC(=S)S1)OCC | > 100 µM | – |
| CC#COP(=O)(OCC)OCC | > 100 µM | – |
| CCOC(=O)c1nc2ccc(C(F)(F)F)cc2nc1NCc1ccc(Cl)c(Cl)c1 | > 100 µM | – |
| COc1cc2cc(Oc3ccc(NC(=O)Nc4ccc(Cl)c(C(F)(F)F)c4)cc3)c(C)nc2cc1OCCN1CCCCC1 | 3.18 µM | 1.78 |
